Hit rate of the full screen: of about 390,000 compounds, about 150 (0.038%) were called active. This list was built around the results that the source calls inconclusive (neither active nor inactive); the mix of calls is not that of the screen. Calls follow the shape of the dose curve; as a rule, active = well fitted inhibition curve with a large enough effect; inconclusive = small, poorly fitted or top-dose-only effect; inactive = no such curve, though single readings can be large or run the other way. Potencies of inconclusive entries are doubtful fits and often do not repeat.
The compounds below were run against Regulator of G-protein signaling 4 (Homo sapiens) (UniProt P49798) (assay: Inhibitors of Regulator of G Protein Signaling (RGS) 4: qHTS). Settings: Transcreener GDP fluorescence polarization, RGS4-accelerated GTP hydrolysis; series mostly up to 114 µM.
In short: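 MLSMR compounds (23 nl, pin-transferred) preincubated 10 min at room temperature with a 500nM (2x) first reagent, then RGS4 at 900nM (2x) plus Transcreener GDP mix added; fluorescence polarization (620/688 nm) read before and after 90 min at 30 °C.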
% is scaled to controls: 0 for no effect and ±100 for the full control effect; potency is read from the fitted curve at half-maximal effect; tags tell the direction and shape of the fitted curve.
Also: nearly all actives have a fitted effect of over 75% in size.

Sequence of UniProt P49798 (P49798 whole entry, looked up): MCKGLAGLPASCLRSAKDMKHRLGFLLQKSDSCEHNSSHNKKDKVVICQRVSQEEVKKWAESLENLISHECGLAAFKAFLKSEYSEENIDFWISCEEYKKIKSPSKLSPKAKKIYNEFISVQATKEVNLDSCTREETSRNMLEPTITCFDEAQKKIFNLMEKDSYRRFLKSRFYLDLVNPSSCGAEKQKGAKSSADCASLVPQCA

**Q.** How did the Potency turn out when `Cc1cc(NC(=O)NCc2ccccc2)c(=O)n(Cc2ccc(F)cc2)c1` was run?
**A.** The Potency was “inactive”.

**Q.** For `CCCNC(=O)c1nc(C)n(-c2ccc([N+](=O)[O-])cc2)n1`, which Potency is on record?
**A.** The Potency was inconclusive: 56.2 µM [inhibitor, partial curve, poor fit].

**Q.** Which Potency does the source give for `CC1=NN(c2ccc(C)c(C)c2)C(=O)C1C(c1cccc(O)c1)C1C(=O)N(c2ccc(C)c(C)c2)N=C1C` (centres undefined) here?
**A.** Its Potency is inconclusive: 10 µM [inhibitor, full curve, poor fit].

**Q.** For `Cc1cc(C)n2nc(C(=O)OCC(=O)c3c[nH]c4ccccc34)nc2n1`, which Potency is on record?
**A.** Its Potency is inconclusive: 44.7 µM [inhibitor, partial curve, poor fit].

**Q.** Which Potency does the source give for `CCC(=O)Nc1nc(C)c(-c2csc(Nc3cccc(C(=O)O)c3)n2)s1` here?
**A.** The Potency was inconclusive: 89.1 µM [inhibitor, partial curve, poor fit].

**Q.** With `CCCCOc1ccc(/C=N/Nc2cc(N3CCOCC3)nc(C)n2)cc1` as the compound, how does the Potency read?
**A.** Its Potency is “inactive”.

**Q.** For `COc1cc2nc(N3CCN(C(=O)OCc4ccccc4)C(C(=O)NC(C)(C)C)C3)nc(N)c2cc1OC` (centres undefined), which Potency is on record?
**A.** Its Potency is inconclusive: 16.8 µM [inhibitor, partial curve].

**Q.** `COc1ccc(/C=N/NC(=O)c2cccc([N+](=O)[O-])c2)cc1O` was tested. Which Potency did it give?
**A.** The Potency was inconclusive: 79.4 µM [inhibitor, partial curve, poor fit].

**Q.** Which Potency does the source give for `N#CCCn1cc(C=O)c(-c2cccs2)n1` here?
**A.** Its Potency is inconclusive: 79.4 µM [inhibitor, partial curve, poor fit].

**Q.** `CCC1CCCCN1C(=O)CSc1nnc(-c2cccc(Cl)c2)o1` (centres undefined) was tested. Which Potency did it give?
**A.** The Potency was “inactive”.

**Q.** Which Potency does the source give for `Cc1cccc(C(=O)OC(C)C(=O)Nc2ccc(S(=O)(=O)N3CCCC3)cc2)c1O` (centres undefined) here?
**A.** The Potency was inconclusive: 89.1 µM [inhibitor, single point].

**Q.** How did the Potency turn out when `CC(=O)Nc1ccc2c(c1)nc1n2CCN(C2CCCCC2)C1` was run?
**A.** The Potency was inconclusive: 70.8 µM [inhibitor, partial curve, poor fit].

**Q.** Which Potency does the source give for `O=C1/C(=C\c2ccc([N+](=O)[O-])cc2)CS(=O)(=O)C/C1=C/c1ccc([N+](=O)[O-])cc1` here?
**A.** The Potency was inconclusive: 56.2 µM [inhibitor, partial curve, poor fit].

**Q.** `Cc1cc(=S)[nH]c2ccccc12` was tested. Which Potency did it give?
**A.** The Potency was inconclusive: 39.8 µM [inhibitor, partial curve, poor fit].

**Q.** For `O=C(Cn1nc(-c2ccccc2)ccc1=O)Nc1ccc(-n2cnnn2)cc1`, which Potency is on record?
**A.** Its Potency is inconclusive: 20 µM [inhibitor, full curve, poor fit].

**Q.** For `CC(C)C(=O)N1CCC(CN=Cc2c(O)n(C3CCCCC3)c(=O)n(C3CCCCC3)c2=O)CC1`, which Potency is on record?
**A.** The Potency was “inactive”.

**Q.** Which Potency does the source give for `O=C1CSC(=S)N1N=Cc1ccc(Cl)s1` here?
**A.** Its Potency is inconclusive: 44.7 µM [inhibitor, partial curve, poor fit].

**Q.** How did the Potency turn out when `COc1cc2c(cc1NC(=O)CN(C)Cc1ccc(OC)c(OC)c1)oc1ccccc12` was run?
**A.** Its Potency is “inactive”.

**Q.** `Cc1ccc(C(=O)Nc2nnc(CC(=O)N/N=C/c3ccc(O)c(O)c3)s2)cc1` was tested. Which Potency did it give?
**A.** Its Potency is inconclusive: 31.6 µM [inhibitor, full curve, poor fit].

**Q.** `CCc1ccccc1NC(c1nnc(-c2cccc(F)c2)o1)c1ccc(F)cc1Cl` (centres undefined) was tested. Which Potency did it give?
**A.** The Potency was “inactive”.

**Q.** Which Potency does the source give for `Cn1cccc1-c1nc2ccc(NC(=O)c3cccs3)cc2[nH]1` here?
**A.** Its Potency is “inactive”.

**Q.** With `COc1ccc(N2CCN(C(=O)CN3C(=O)NC(c4ccc(OC)cc4)(c4ccc(OC)cc4)C3=O)CC2)cc1` as the compound, how does the Potency read?
**A.** Its Potency is “inactive”.

**Q.** For `Cc1occc1C(=O)Nc1ccc([N+](=O)[O-])cc1Br`, which Potency is on record?
**A.** Its Potency is inconclusive: 100 µM [inhibitor, partial curve, poor fit].

**Q.** For `COCCNC(=S)Nc1ccc(N2CCOCC2)c(S(=O)(=O)Nc2ccccc2OC)c1`, which Potency is on record?
**A.** Its Potency is inconclusive: 50.1 µM [inhibitor, partial curve, poor fit].

**Q.** `O=c1cc2c(nn1Cc1ccccc1)-c1ccccc1CC2` was tested. Which Potency did it give?
**A.** Its Potency is “inactive”.

**Q.** For `O=C1CCN(CCc2ccccc2)CCN1C(CSc1ccc(Br)cc1)Cc1ccccc1` (centres undefined), which Potency is on record?
**A.** Its Potency is “inactive”.

**Q.** With `O=C(CSc1nnc(SCc2ccccc2)s1)NNC(=S)Nc1ccccc1` as the compound, how does the Potency read?
**A.** The Potency was “inactive”.

**Q.** `C=CCN(c1ccc(C(=O)Nc2cccc([N+](=O)[O-])c2)cc1)S(C)(=O)=O` was tested. Which Potency did it give?
**A.** The Potency was inconclusive: 89.1 µM [inhibitor, single point].

**Q.** `Brc1ccc(-c2nnc(-c3ccc4c(c3)OCO4)o2)o1` was tested. Which Potency did it give?
**A.** Its Potency is inconclusive: 79.4 µM [inhibitor, single point].

**Q.** With `COCc1cc(O)c(O)c(O)c1-c1c(COC)cc(O)c(O)c1O` as the compound, how does the Potency read?
**A.** Its Potency is inconclusive: 0.0336 µM [inhibitor, full curve, poor fit].

**Q.** With `COCCCNC(=O)/C(C#N)=C/c1c(N2CCN(c3ccccc3)CC2)nc2c(C)cccn2c1=O` as the compound, how does the Potency read?
**A.** Its Potency is “inactive”.

**Q.** `COc1ccc(-c2cc(C(F)(F)F)nc(S(C)(=O)=O)n2)cc1` was tested. Which Potency did it give?
**A.** Its Potency is “inactive”.

**Q.** `c1ccc2c(c1)nnn2Cc1nnc2sc(-c3ccc4c(c3)OCCO4)nn12` was tested. Which Potency did it give?
**A.** Its Potency is inconclusive: 10 µM [inhibitor, full curve, poor fit].

**Q.** `O=C(CN1C(=O)c2ccccc2S1(=O)=O)NCCSCc1ccco1` was tested. Which Potency did it give?
**A.** Its Potency is inconclusive: 50.1 µM [inhibitor, partial curve, poor fit].

**Q.** With `CCc1cc(=O)oc2cc(C)c(CN3CCCC3)c(O)c12` as the compound, how does the Potency read?
**A.** The Potency was inconclusive: 56.2 µM [inhibitor, partial curve, poor fit].

**Q.** `CC(C)(C)c1csc(NC(=O)Cn2cnc3ccccc3c2=O)n1` was tested. Which Potency did it give?
**A.** Its Potency is inconclusive: 100 µM [inhibitor, single point].

**Q.** How did the Potency turn out when `CC(C)CC1Nc2ncnc(N3CCN(c4ccccc4)CC3)c2N(Cc2ccc(Br)cc2)C1=O` (centres undefined) was run?
**A.** Its Potency is “inactive”.

**Q.** For `CN(C)S(=O)(=O)c1cccc(NC(=O)COC(=O)c2ccc([N+](=O)[O-])o2)c1`, which Potency is on record?
**A.** The Potency was “inactive”.

**Q.** How did the Potency turn out when `O=C(CNC(=S)NC(=O)c1cccs1)c1ccccc1` was run?
**A.** Its Potency is inconclusive: 100 µM [inhibitor, single point].

**Q.** For `CC(C)c1ccc(N(CC(=O)NC2CCCC2)C(=O)CCC(=O)Nc2ccccn2)cc1`, which Potency is on record?
**A.** The Potency was inconclusive: 89.1 µM [inhibitor, single point].

**Q.** How did the Potency turn out when `Fc1cccc(Nc2nc(-c3ccncc3)nc3ccccc23)c1` was run?
**A.** Its Potency is inconclusive: 39.8 µM [inhibitor, partial curve, poor fit].

**Q.** For `O=C(CCC1CCCCC1)NCCN1C2=NC[C@@H](Cc3ccccc3)N2C[C@H]1Cc1ccc(O)cc1`, which Potency is on record?
**A.** The Potency was “inactive”.

**Q.** For `O=[N+]([O-])C(=C1Nc2ccccc2N1)C(Cl)=C(Cl)Cl`, which Potency is on record?
**A.** Its Potency is inconclusive: 17.8 µM [inhibitor, full curve, poor fit].

**Q.** `Cc1ccc(-c2csc(C3C(N)=NC(S)=C(C#N)C34CCCCC4)n2)cc1` (centres undefined) was tested. Which Potency did it give?
**A.** The Potency was inconclusive: 100 µM [inhibitor, partial curve, poor fit].

**Q.** Which Potency does the source give for `Cn1c(SCC(=O)N/N=C/C=C/c2ccco2)nc2ccccc21` here?
**A.** Its Potency is inconclusive: 44.7 µM [inhibitor, partial curve, poor fit].

**Q.** `O=C(OCC(=O)N1CCN(C(=O)COC(=O)c2ccccc2NCCO)CC1)c1ccccc1NCCO` was tested. Which Potency did it give?
**A.** The Potency was “inactive”.

**Q.** For `O=c1oc2ccccc2cc1-c1nc2c(s1)CCc1ccccc1-2`, which Potency is on record?
**A.** Its Potency is inconclusive: 56.2 µM [inhibitor, partial curve, poor fit].

**Q.** How did the Potency turn out when `COc1ccc(C(NC(=O)/C=C/c2ccco2)c2ccc(OC)cc2)cc1` was run?
**A.** The Potency was inconclusive: 44.7 µM [inhibitor, partial curve, poor fit].

**Q.** How did the Potency turn out when `Cc1cccc(NC2=C(NCCO)C(=O)c3ccccc3C2=O)c1` was run?
**A.** Its Potency is “inactive”.

**Q.** Which Potency does the source give for `O=C(O)CCN1C(=O)C(=C2CCCCCC2)SC1=S` here?
**A.** Its Potency is inconclusive: 31.6 µM [inhibitor, full curve, poor fit].

**Q.** How did the Potency turn out when `O=C(Nc1cccc2nsnc12)c1cccs1` was run?
**A.** Its Potency is inconclusive: 89.1 µM [inhibitor, single point].

**Q.** With `N#C/C(=C\c1ccccc1C(F)(F)F)C(=O)Nc1ccccc1` as the compound, how does the Potency read?
**A.** Its Potency is inconclusive: 89.1 µM [inhibitor, single point].

**Q.** For `Cn1c(O)c(/C=C2\C=Nc3ccccc32)sc1=Nc1ccc(C(=O)O)cc1`, which Potency is on record?
**A.** The Potency was “inactive”.

**Q.** `CCOC(=O)/C(=C\c1cccnc1)C(=O)c1cc(C(C)=O)c(Nc2ccccc2)s1` was tested. Which Potency did it give?
**A.** Its Potency is inconclusive: 31.6 µM [inhibitor, full curve, poor fit].

**Q.** Which Potency does the source give for `COc1cccc2cc(-c3nc4ccccc4o3)c(=O)oc12` here?
**A.** The Potency was inconclusive: 44.7 µM [inhibitor, partial curve, poor fit].

**Q.** How did the Potency turn out when `O=C(CSc1nnc(NC2CCCCC2)s1)NCc1ccco1` was run?
**A.** Its Potency is inconclusive: 79.4 µM [inhibitor, partial curve, poor fit].

**Q.** With `O=C1Nc2ccccc2/C1=C/c1cnc(-c2ccccc2)[nH]1` as the compound, how does the Potency read?
**A.** The Potency was inconclusive: 100 µM [inhibitor, partial curve, poor fit].

**Q.** For `Cc1ccccc1/C=N/Nc1ccnc2cc(Cl)ccc12`, which Potency is on record?
**A.** The Potency was inconclusive: 17.8 µM [inhibitor, partial curve, poor fit].

**Q.** Which Potency does the source give for `COc1cc(-c2nnc3sc(-c4ccncc4)nn23)cc(OC)c1OC` here?
**A.** The Potency was inconclusive: 100 µM [inhibitor, partial curve, poor fit].

**Q.** With `O=C(Nc1cc(C(F)(F)F)ccc1Cl)C(Sc1ccccn1)c1ccccc1` (centres undefined) as the compound, how does the Potency read?
**A.** The Potency was “inactive”.

**Q.** With `CCOC(=O)c1sc(NC(=O)c2cc(-c3ccccc3)nc3ccccc23)c(C#N)c1C` as the compound, how does the activity change, negative = inhibition read?
**A.** Its activity change, negative = inhibition is inactive: -40.2% [at 11.4 µM].

**Q.** Which Potency does the source give for `CC(C)C[C@@H](CNCC(=O)[C@H](C)NC(=O)c1[nH]cnc1C(=O)N[C@@H](C)CN)NC(=O)c1nc[nH]c1C(=O)N[C@@H](Cc1ccccc1)C(=O)O` here?
**A.** Its Potency is inconclusive: 89.1 µM [inhibitor, single point].

**Q.** With `CS(=O)(=O)c1ccc(Cl)c(NC(=O)COC(=O)CNC(=O)c2ccc3ccccc3c2)c1` as the compound, how does the Potency read?
**A.** Its Potency is inconclusive: 89.1 µM [inhibitor, single point].

**Q.** How did the Potency turn out when `COc1ccc(C(=O)N[C@H](C(=O)OCCCOC(=O)[C@@H](NC(=O)c2ccc(OC)cc2)C(C)C)C(C)C)cc1` was run?
**A.** Its Potency is “inactive”.

Source: PubChem BioAssay AID504845 (National Center for Advancing Translational Sciences (NCATS), 2011)
